In PubChem BioAssay AID588342 (National Center for Advancing Translational Sciences (NCATS), 2011):
Out of some 360,000 compounds screened, about 25,000 (6.9%) were called active. The shares of active, inactive and inconclusive entries below differ from those in the screen. Calls follow the shape of the dose curve; as a rule, active = well fitted inhibition curve with a large enough effect; inconclusive = small, poorly fitted or top-dose-only effect; inactive = flat fitted curve, though single readings scatter. Potencies of inconclusive entries are doubtful fits and often do not repeat.

molecular target: Luciferin 4-monooxygenase (Photinus pyralis) (UniProt P08659); test: qHTS profiling assay for firefly luciferase inhibitor/activator using purifed enzyme and Km concentrations of substrates (counterscreen for miR-21 project); details: purified FLuc, luminescence inhibition; series mostly up to 57.5 µM; also: nearly all actives have a fitted effect of over 55% in size
UniProt P08659, sequence (P08659 whole entry, looked up): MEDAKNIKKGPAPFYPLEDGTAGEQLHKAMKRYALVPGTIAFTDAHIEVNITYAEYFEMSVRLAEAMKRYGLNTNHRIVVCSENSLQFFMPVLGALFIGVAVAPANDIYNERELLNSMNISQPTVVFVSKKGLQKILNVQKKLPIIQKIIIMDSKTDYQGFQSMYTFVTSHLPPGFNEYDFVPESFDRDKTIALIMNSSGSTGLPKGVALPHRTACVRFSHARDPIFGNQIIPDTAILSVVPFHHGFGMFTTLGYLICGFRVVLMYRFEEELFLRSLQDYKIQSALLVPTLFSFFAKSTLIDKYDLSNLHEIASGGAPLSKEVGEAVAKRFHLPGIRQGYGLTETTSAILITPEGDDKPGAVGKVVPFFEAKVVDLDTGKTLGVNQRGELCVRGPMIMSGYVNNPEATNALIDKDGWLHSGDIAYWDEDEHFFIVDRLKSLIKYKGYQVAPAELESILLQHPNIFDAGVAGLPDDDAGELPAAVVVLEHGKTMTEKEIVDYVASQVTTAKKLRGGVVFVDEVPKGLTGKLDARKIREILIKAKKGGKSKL
Summary of the method: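 Purified P. pyralis luciferase (10nM final) with 10uM D-luciferin and 10uM ATP (Km levels) in 50mM Tris acetate pH 7.5, 10mM Mg acetate, 0.01% Tween-20, 0.05% BSA; qHTS 6-point titration, ~60 µM downward; luminescence read.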
Potency is read from the fitted curve at half-maximal effect; tags tell the direction and shape of the fitted curve.

SMILES	Potency
COC(=O)c1sc2cccc(F)c2c1S(=O)(=O)NCc1ccc(F)cc1	inactive
c1ccc2[nH]c3cc4ncnc4cc3nc2c1	inconclusive: 26.9 µM [inhibitor, single point]
CN1c2cccc3cccc(c23)N(C)C1c1cccs1	inconclusive: 8.49 µM [inhibitor, single point]
Fc1cccc(F)c1CSc1nc2ccccc2[nH]1	inconclusive: 0.953 µM [inhibitor, single point]
Cc1cc(C(=O)OCC(=O)N2CC(=O)Nc3ccccc32)c(C)n1-c1ccccc1	inconclusive: 26.9 µM [inhibitor, single point]
O=C(Nc1ccc2oc(-c3ccc4ccccc4c3)nc2c1)c1cccc(Cl)c1Cl	inconclusive: 21.3 µM [inhibitor, partial curve, poor fit]
O=[N+]([O-])c1c(C(Cl)Cl)nn(-c2ccccc2)c1N1CCOCC1	inactive
CC1CN(S(=O)(=O)c2ccccc2)C(C)N1C(=O)N1CCOCC1 (configuration not stated)	inactive
CCC(C)/C(C)=N/NC(=O)c1cn(-c2ccccc2)nc1-c1ccccc1 (configuration not stated)	inconclusive: 33.8 µM [inhibitor, partial curve, poor fit]
CCO[C@@H]1OC(C(=O)NCc2ccccc2)=C[C@H](c2coc3ccccc3c2=O)[C@H]1CCCO	inactive
COc1ccc(C2CN=NC2C(=O)c2ccccc2)cc1 (configuration not stated)	inconclusive: 21.3 µM [inhibitor, single point]
CCc1ccc(NC(=O)C2(c3cccs3)CCOCC2)cc1	inactive
O=C(Nc1ccc2c(c1)OCO2)c1c[nH]c(=O)n(-c2ccc(F)cc2)c1=O	inconclusive: 21.3 µM [inhibitor, single point]
O=C1CNC(=S)N1c1nc(-c2ccccc2)cs1	active: 2.69 µM
Cc1ccc(/C(N)=N/OC(=O)CCc2ccccc2)cc1	active: 15.1 µM
COc1ccc(CNC(=O)CN2CCN(c3ccccc3O)CC2)cc1OC	inactive
Cc1cc(C)cc(-n2c(SCC(=O)Nc3ccccc3F)nc3c(oc4ccccc43)c2=O)c1	inactive
Cc1ccc(C(=O)N/C(=C\c2ccco2)C(=O)N2CCCCC2)cc1	inconclusive: 37.9 µM [inhibitor, partial curve, poor fit]
CSc1nsc(SCC(=O)Nc2ccc(Cl)c(C(=O)O)c2)n1	inactive
CN(Cc1cccc2cnccc12)C(=O)CCc1nnc(CCc2ccccc2)o1	inconclusive: 37.9 µM [inhibitor, single point]
Cc1ccc(S(=O)(=O)N2CCOCC2)cc1C(=O)OCC(=O)NCc1ccccc1	inactive
O=C(N/N=C/c1ccccn1)c1ccc(Cl)c(Cl)c1	inconclusive: 21.3 µM [inhibitor, partial curve]
COCCn1c(C)cc(/C=C(\C#N)C(=O)OCC(=O)N(C)c2c(N)n(Cc3ccccc3)c(=O)[nH]c2=O)c1C	inconclusive: 37.9 µM [inhibitor, partial curve, poor fit]
O=c1n(Cc2ccc([N+](=O)[O-])cc2)c2ccccc2c2nc(-c3ccccc3)nn12	inactive

SMILES	Potency
COc1ccc(CCNC(=O)c2cc(-c3ccccc3)on2)cc1OC	inactive
CC1=Nc2ccc(C)cc2/C1=C/c1c(N)n2c(S(=O)(=O)C(C)C)nsc2nc1=O	inconclusive: 26.9 µM [inhibitor, partial curve]
Cc1cc(C)nc(SCc2cn3cc(Cl)ccc3n2)n1	inconclusive: 23.9 µM [inhibitor, partial curve, poor fit]
Cc1cc(C(=O)COC(=O)c2n[nH]c(=O)c3ccccc23)c(C)n1C	active: 1.69 µM
N/C(=N\OC(=O)c1cc(Cl)ccc1Cl)c1ccccn1	active: 1.51 µM
COC(=O)CSc1nc2cc3c(cc2cc1C)OCO3	inconclusive: 37.9 µM [inhibitor, partial curve, poor fit]
S=c1[nH]c(-c2ccccc2)cn1/N=C/c1cccc2ccccc12	inconclusive: 12 µM [inhibitor, partial curve, poor fit]
O=C(N/N=C/c1cc([N+](=O)[O-])ccc1O)C1C2CCCCC21 (configuration not stated)	inconclusive: 23.9 µM [inhibitor, single point]
Cc1nc(NC(=O)c2ccco2)sc1-c1csc(Nc2ccc(Cl)cc2Cl)n1	inconclusive: 7.57 µM [inhibitor, partial curve]
Cc1oc(-c2ccccc2F)nc1Cn1c(SCc2cccc(Cl)c2)nc2ccncc21	inconclusive: 16.9 µM [inhibitor, partial curve, poor fit]
CCOCCc1nn2c(=O)cc(COC(=O)c3ccccc3Br)nc2s1	inactive
CC1=NN(c2cccc(C(=O)O)c2)C(=O)/C1=C\C=C/c1ccccc1	active: 2.39 µM
O=C(Nc1ccc(F)cc1)N1CCN(c2nc3ccccc3s2)CC1	inconclusive: 37.9 µM [inhibitor, partial curve, poor fit]
CCOCc1c(C(=O)Nc2cc(OCC)c(N3CCOCC3)cc2OCC)oc2ccccc12	inactive
Cc1cccc(NC(=O)NC2CCCCCCC2)c1C	inconclusive: 8.49 µM [inhibitor, partial curve, poor fit]
COc1cc2c(cc1OC)[C@@H]1Cc3cc4c(cc3[C@H](C2)N1C)OCO4	inconclusive: 37.9 µM [inhibitor, partial curve, poor fit]
CCOCCCN(C)C1CCN(C(=O)c2oc3ccccc3c2NC(=O)c2ccc(F)cc2)CC1	inactive
CCOC(=O)/C=C(\C)N1N=C(c2ccccc2)CC1c1ccccc1 (configuration not stated)	active: 16.9 µM
CCn1c(C)nc2cc(C(=O)NNC(=S)Nc3ccc(Cl)cc3)ccc21	inconclusive: 23.9 µM [inhibitor, single point]
C=CCNC(=O)NC(=O)CSc1nnc(C(F)(F)F)n1C	inactive
Cc1cc(-n2c(C)nc3ccccc3c2=O)ccc1NC(=O)c1cccc([N+](=O)[O-])c1C	inactive
O=C(Nc1c(C(=O)O)[nH]c2ccccc12)c1cccc(C(F)(F)F)c1	inconclusive: 19 µM [inhibitor, partial curve, poor fit]
O=c1[nH]c(N2CCOCC2)nc2ccccc12	inactive
CCc1nn(CC(=O)NCC(C)c2ccccc2)c(=O)c2cc3c(OC)cccc3n12 (configuration not stated)	inactive

SMILES	Potency
Cc1cc(Br)cc(C)c1OCC(=O)Nc1ccc(S(=O)(=O)Nc2ncccn2)cc1	inconclusive: 12 µM [inhibitor, partial curve, poor fit]
c1ccc2c(-n3cccn3)cccc2c1	active: 15.1 µM
Oc1c(C(c2cccc(Cl)c2)N2CCOCC2)sc2nc(-c3ccco3)nn12 (configuration not stated)	inactive
CCOC(=O)c1ccc(N/C=C/C(=O)c2ccco2)cc1	active: 1.35 µM
O=C1Nc2ccc(Br)cc2/C1=C/C(=O)c1ccc2c(c1)OCO2	inconclusive: 10.7 µM [inhibitor, partial curve, poor fit]
O=C(NCCCCNC(=O)c1ccccc1Cl)c1ccccc1Cl	inactive
O=C(COc1ccc(F)cc1)NCc1ccc2c(c1)CCN2C(=O)c1ccc(F)cc1	inconclusive: 26.9 µM [inhibitor, partial curve, poor fit]
CC(C)CN1C(=O)/C(=C/c2ccco2)NC1=S	inconclusive: 23.9 µM [inhibitor, partial curve, poor fit]
Cc1ccc(S(=O)(=O)N(C)CC(=O)Nc2cc(C)ccn2)cc1	inconclusive: 19 µM [inhibitor, partial curve]
O=c1[nH]n2c(=O)c3c([nH]c2c1N=Nc1ccccc1)CCC3	inconclusive: 30.1 µM [inhibitor, single point]
O=C(c1ccco1)N1CCN(C(=O)c2cc3c(s2)-c2ccccc2OC3)CC1	inconclusive: 23.9 µM [inhibitor, partial curve, poor fit]
COc1cc(NC(=O)CSc2ccc(-c3sc(C)nc3C)nn2)cc(OC)c1	inconclusive: 30.1 µM [inhibitor, partial curve, poor fit]
Cc1ccc2nc(NC(=O)CSc3nnc(C)c(=O)n3N)sc2c1	inconclusive: 3.01 µM [inhibitor, partial curve, poor fit]
COc1ccc(NC(=O)c2ccc(Cl)c(NC(=O)c3ccncc3)c2)cc1	inconclusive: 26.9 µM [inhibitor, single point]
Cc1ccc(S(=O)(=O)C(CNC(=O)C(=O)NCCc2ccc(F)cc2)c2cccs2)cc1 (configuration not stated)	inactive
COc1ccc(-c2ccc(CO)o2)cc1N	inconclusive: 23.9 µM [inhibitor, single point]
CCOC(=O)c1ccc(NC(=O)c2cc(F)c(F)cc2Cl)cc1	inconclusive: 37.9 µM [inhibitor, partial curve, poor fit]
CCCOc1ccc(C(=O)Nc2cccc(NC(=O)c3ccc(Cl)cc3Cl)c2)cc1	inactive
COc1ccc(C(=O)N/N=C/c2c[nH]c3ccccc23)cc1	active: 13.5 µM
CCOC(=O)/C(C#N)=C/N=c1ccc(C)cn1C	active: 16.9 µM
Cc1cccc(CSc2nc3c(c(=O)n2C)SCC3)c1	inconclusive: 30.1 µM [inhibitor, partial curve, poor fit]
CC(=O)N1CCc2cc(CNS(=O)(=O)c3ccccc3C(F)(F)F)ccc21	inactive
Cc1cc(C)cc(NC(=O)Cn2c(C)cc(C)c(C#N)c2=O)c1	inactive
COc1ccc(/C=C2/SC(=O)N(CCC(=O)Nc3ccccc3C(=O)O)C2=S)cc1	inconclusive: 30.1 µM [inhibitor, single point]
